Laboratory results: paper PMC11513070
Residue numbers refer to the chain shown, from its start. Results are given in words; binding and its absence hold for the method and conditions named. In cells and extracts the contact can be indirect. Some results given as binding are weak or reduced against the parent protein; the word gives no strength. Tags and fused reporters may be left off the sequences shown.

Tests used:
[1] = molecular target: T1, SPPL2c-3xFLAG (mouse) (UniProt A2A6C4); experiment: co-IP; 3xFLAG-tagged SPP/SPPL protease precipitated with anti-FLAG beads from lysates of transiently transfected HEK293T cells; western blot for endogenous calnexin
T1 sequence (chain, N-glycosylated at N106): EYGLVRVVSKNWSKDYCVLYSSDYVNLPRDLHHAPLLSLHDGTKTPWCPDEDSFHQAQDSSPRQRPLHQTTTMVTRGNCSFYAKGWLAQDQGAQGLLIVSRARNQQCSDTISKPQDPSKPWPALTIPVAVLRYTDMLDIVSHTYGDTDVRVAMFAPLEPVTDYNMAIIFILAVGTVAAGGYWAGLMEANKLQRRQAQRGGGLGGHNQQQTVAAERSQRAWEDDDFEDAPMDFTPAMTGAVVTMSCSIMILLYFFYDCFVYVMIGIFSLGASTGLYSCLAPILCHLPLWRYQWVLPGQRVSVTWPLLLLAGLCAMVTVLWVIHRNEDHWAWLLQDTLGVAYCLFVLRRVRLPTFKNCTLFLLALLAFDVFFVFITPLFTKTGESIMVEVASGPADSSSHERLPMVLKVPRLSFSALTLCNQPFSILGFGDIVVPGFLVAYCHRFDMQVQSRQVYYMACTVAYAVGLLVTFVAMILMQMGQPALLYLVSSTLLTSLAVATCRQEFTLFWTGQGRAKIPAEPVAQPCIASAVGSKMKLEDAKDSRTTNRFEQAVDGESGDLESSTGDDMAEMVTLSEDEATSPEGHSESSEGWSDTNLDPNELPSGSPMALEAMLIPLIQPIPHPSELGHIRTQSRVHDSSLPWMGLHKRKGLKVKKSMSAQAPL

[2] = molecular target: T2, SPP-myc (murine, wild type) (mouse) (UniProt Q9D8V0); experiment: co-IP; myc-tagged protease variant precipitated with anti-SPPL2c (C-terminus or 3B epitope) or anti-SPP sepharose beads from lysates (0.5% DDM) of transiently transfected HEK293T cells, overnight at 4 °C; western blot for endogenous calnexin
T2 sequence (chain, N-glycosylated at N10 and N20): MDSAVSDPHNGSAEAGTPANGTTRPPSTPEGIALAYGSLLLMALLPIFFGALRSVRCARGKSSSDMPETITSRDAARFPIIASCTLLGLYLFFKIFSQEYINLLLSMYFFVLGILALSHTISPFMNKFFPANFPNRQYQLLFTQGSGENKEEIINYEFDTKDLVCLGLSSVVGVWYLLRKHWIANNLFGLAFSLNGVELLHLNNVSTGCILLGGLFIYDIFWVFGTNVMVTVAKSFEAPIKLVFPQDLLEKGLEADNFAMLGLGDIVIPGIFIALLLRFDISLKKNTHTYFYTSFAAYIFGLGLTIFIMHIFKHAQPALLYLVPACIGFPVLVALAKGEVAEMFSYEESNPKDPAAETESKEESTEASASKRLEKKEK

[3] = molecular target: T3, SPPL2c N106A-myc (murine isoform A, glycosylation-deficient) (mouse) (UniProt A2A6C4); experiment: as above
T3 sequence: T1 sequence (chain, N-glycosylated at N106) with N78A

[4] = molecular target: T4, SPPL2c-myc (murine SPPL2c isoform A, wild type) (mouse) (UniProt A2A6C4); experiment: as above
T4 sequence (chain, N-glycosylated at N106): T1 sequence (chain, N-glycosylated at N106)

[5] = substrate: T5, SPP N10/20A-myc (murine, glycosylation-deficient) (mouse) (UniProt Q9D8V0); experiment: as above
T5 sequence: T2 sequence (chain, N-glycosylated at N10 and N20) with N10A, N20A

binding [1]: binds | binding [2]: binds | binding [3]: no binding | binding [4]: binds | binding [5]: no binding
B1: calnexin, endogenous in HEK293T cells (protein, UniProt P27824 21-592)
chain: HDGHDDDVIDIEDDLDDVIEEVEDSKPDTTAPPSSPKVTYKAPVPTGEVYFADSFDRGTLSGWILSKAKKDDTDDEIAKYDGKWEVEEMKESKLPGDKGLVLMSRAKHHAISAKLNKPFLFDTKPLIVQYEVNFQNGIECGGAYVKLLSKTPELNLDQFHDKTPYTIMFGPDKCGEDYKLHFIFRHKNPKTGIYEEKHAKRPDADLKTYFTDKKTHLYTLILNPDNSFEILVDQSVVNSGNLLNDMTPPVNPSREIEDPEDRKPEDWDERPKIPDPEAVKPDDWDEDAPAKIPDEEATKPEGWLDDEPEYVPDPDAEKPEDWDEDMDGEWEAPQIANPRCESAPGCGVWQRPVIDNPNYKGKWKPPMIDNPSYQGIWKPRKIPNPDFFEDLEPFRMTPFSAIGLELWSMTSDIFFDNFIICADRRIVDDWANDGWGLKKAADGAAEPGVVGQMIEAAEERPWLWVVYILTVALPVFLVILFCCSGKKQTSGMEYKKTDAPQPDVKEEEEEKEEEKDKGDEEEEGEEKLEEKQKSDAEEDGGTVSQEEEDRKPKAEEDEILNRSPRNRKPRRE
